Assay results reported in publication PMC6919601, “Identification of Plasmodium dipeptidyl aminopeptidase allosteric inhibitors by high throughput screening” (PLoS ONE, 2019).
Hit rate of the full screen: of about 110,000 compounds, about 230 (0.21%) showed an effect of 50% or more. This is one part of the list.

molecular target: DPAP1 (Plasmodium falciparum, UniProt Q8IIJ9); assay: primary screen, percent inhibition; read by cleavage of a fluorogenic dipeptide substrate; higher = more effect of the substance; parameters: species or system P. falciparum D10 trophozoite lysates; single well
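Further: 30 min substrate incubation versus DMSO and 10 µM JCP410 controls.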

Chain of DPAP1 (Q8IIJ9 whole entry, looked up): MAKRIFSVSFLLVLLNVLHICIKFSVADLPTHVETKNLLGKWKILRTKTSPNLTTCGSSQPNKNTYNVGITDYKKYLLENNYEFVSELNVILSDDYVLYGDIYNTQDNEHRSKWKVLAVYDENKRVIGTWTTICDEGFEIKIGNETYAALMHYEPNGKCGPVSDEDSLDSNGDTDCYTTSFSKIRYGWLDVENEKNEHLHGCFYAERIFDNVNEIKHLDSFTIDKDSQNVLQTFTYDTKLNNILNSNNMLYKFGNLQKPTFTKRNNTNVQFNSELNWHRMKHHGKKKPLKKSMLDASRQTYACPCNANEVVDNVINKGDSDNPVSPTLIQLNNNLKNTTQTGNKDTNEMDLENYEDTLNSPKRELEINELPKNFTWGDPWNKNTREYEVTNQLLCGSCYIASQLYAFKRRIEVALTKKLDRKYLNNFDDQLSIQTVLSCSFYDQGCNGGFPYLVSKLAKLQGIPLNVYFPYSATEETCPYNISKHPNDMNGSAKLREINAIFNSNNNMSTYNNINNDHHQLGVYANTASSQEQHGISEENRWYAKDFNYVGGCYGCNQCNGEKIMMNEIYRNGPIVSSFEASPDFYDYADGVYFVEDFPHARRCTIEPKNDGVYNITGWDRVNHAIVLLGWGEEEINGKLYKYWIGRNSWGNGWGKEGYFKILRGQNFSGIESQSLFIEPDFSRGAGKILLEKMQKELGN

Point of comparison: `CS(=O)(=O)c1nc(S(=O)(=O)c2ccc(Cl)cc2)c(NCCC2=CCCCC2)s1`, “% Inhibition @ 10 uM” value -9.79%. Against it:
- O=C1NC(c2ccc(O)cc2)C(C(=O)c2ccccc2)C(O)(C(F)(F)F)N1 (stereo not shown) — higher, 0.873%
- O=C(NCCSc1ccc(Cl)cc1)c1ccc(CN2CCOCC2)cc1 — higher, 2.36%
- CC(C)N1CCN(Cc2ccccc2Br)CC1 — higher, 3.06%
- COc1ccc(-c2noc(CNC(=O)N3CCOCC3)n2)cc1 — higher, -4.82%
- COc1ccc(C(=O)Nc2cc(C)ccc2C)c(OC)c1 — higher, -8.33%
- CN(C)CCN(Cc1ccccc1)Cc1ccc([N+](=O)[O-])cc1 — higher, 5.01%
- Cc1cc(C)n(-c2nc3c(C)cccc3s2)n1 — higher, 4.31%
- N#Cc1c(C(F)(F)F)cc(C23CC4CC(CC(C4)C2)C3)nc1SCC(N)=O — higher, 5.83%
- COc1ccc(-c2csc(NC(=O)CSc3nc(C)c(CC(C)C)[nH]3)n2)cc1 — higher, -2.79%
- O=C(Nc1cccc(F)c1)c1ccc(-c2ccccc2)cc1 — higher, -3.72%
- COc1ccc(C2CC(=O)n3nc(N)nc3N2)cc1 (stereo not shown) — higher, -3.53%
- O=C(c1cccc(Br)c1)N1CCN(c2ccc(F)cc2)CC1 — lower, -11.1%
- Cc1cc(NC(=O)COCc2cc(-c3cccs3)on2)nn1Cc1ccc(Cl)cc1 — higher, -6.47%
- CCOC(=O)c1cnc2c(ccc3ccccc32)c1NCCOC(=O)c1cccc(C)c1 — higher, 0.884%
- Cc1nn(-c2ccc(N3CCOCC3)nn2)c(C)c1CCC(=O)O — higher, 4.01%
- COc1ccc(OC)c(C2C(C#N)=C(N)Oc3c2c(C)nn3-c2ccc(C)cc2)c1 (stereo not shown) — higher, -0.366%
- Cc1cccc(CCNC(=O)Cn2ncc3c2-c2ccccc2OC3)c1 — higher, -2.42%
- Cn1c2ccccc2c2nnc(SCC(=O)Nc3nnc(COc4ccccc4)s3)nc21 — higher, -6.94%
- O=C(CCC(=O)N1CCc2ccccc21)N1CCc2ccccc21 — higher, 0.121%
- O=C1N/C(=C\c2ccc(Cl)cc2)C(=O)c2ccccc21 — higher, 5.06%
- O=C(c1ccco1)N1CCN(C2CCCCC2NS(=O)(=O)c2ccccc2)CC1 (stereo not shown) — higher, 1%
- Cc1ccc(N(CC(=O)N2CCOCC2)S(=O)(=O)c2ccc(C)cc2)cc1 — higher, -5.67%
- COc1ccccc1NC(=O)c1c(C)cc(=O)n(-c2ccccc2OC)c1C — higher, 1.54%
- Cc1ccc2c(CC(=O)Nc3sc4c(c3C(N)=O)CCCC4)coc2c1 — higher, 5.7%
- COc1cccc(-c2coc3cc4oc(=O)c(CCC(=O)O)c(C)c4cc23)c1 — higher, 3.81%
- O=C(NCc1cccnc1)c1cc2c(Cl)ccc3c2n1CCO3 — higher, 5.71%
- COCCNC(=O)C1CCN(c2ncnc3c2nc2n3CCCCC2)CC1 — higher, 0.958%
- Cc1ccc(C(=O)/C=C/c2cc(Cl)cc3c2OCOC3)c(O)c1 — higher, 8.98%
- CC1CN(Cc2cccc(Cl)c2Cl)CC(C)O1 (stereo not shown) — higher, -2.78%
- CS(=O)(=O)CC[C@@H](NC(=O)OCc1ccccc1)C(=O)NCC#N — higher, 3.1%
- CCCOc1ccc(-c2nonc2NC(=O)COc2ccc(F)cc2)cc1OCCC — higher, -1.47%
- Cc1onc(-c2ccccc2Cl)c1C(=O)Nc1cccc(F)c1 — higher, -7.34%
- c1ccc2c(c1)CCOC2C1=NCCN1 (stereo not shown) — higher, 0.774%
- CCCS(=O)(=O)N1CCN(Cc2ccccc2Br)CC1 — higher, -3.41%
- CC1CCC(NC(=O)C(NC(=O)C2CCC(C)CC2)C(C)C)CC1 (stereo not shown) — higher, -4.96%
- Nc1nnc(COc2ccccc2Cl)s1 — higher, -1.93%
- Cn1nc(C(=O)N2CCCC2)c2c1-c1ccccc1S(=O)(=O)C2 — higher, -1.67%
- Cc1ccc(-c2cnc(NCc3ccc(F)cc3F)n2C)cc1 — higher, 2.31%
- O=C(Nc1cc(C(F)(F)F)ccc1Cl)c1ccc(-c2ccccc2)cc1 — higher, -1.15%
- Cn1c(C2=CC(C)(C)NC(C)(C)C2)ccc1C1=CC(C)(C)NC(C)(C)C1 — higher, -5.9%
- CS(=O)(=O)N(CC(=O)N1CCCCC1)c1ccc(Cl)c(C(F)(F)F)c1 — higher, -3.39%
- O=C(Nc1nccs1)C1CCCN(c2ncnc3c2nc2n3CCCCC2)C1 (stereo not shown) — higher, -2.21%
- O=C(c1ccc2c(c1)sc1nc(-c3ccccc3)cn12)N1CCN(Cc2ccccc2)CC1 — higher, 32.5%
- CCN(CC)c1ccc(C2C3=C(O)CCCC3=NC(C)=C2C(=O)Nc2ccccc2F)cc1 (stereo not shown) — higher, -2.64%
- COc1ccc(/C=C/C(=O)NCCNC2=NS(=O)(=O)c3ccccc32)cc1 — higher, 3.72%
- CC(C)CCNC(=O)C1CCCCN1S(=O)(=O)c1ccc(F)cc1 (stereo not shown) — higher, -4.06%
- Cc1cccc2[nH]cc(CC(NC(=O)c3ccc(-c4ccccc4Cl)cc3)C(=O)NCC#N)c12 (stereo not shown) — higher, -6.98%
- Nc1ccc(Cl)c(NC(=O)c2ccccc2)c1 — higher, -5.12%
- O=C(O)C1C2C=CC(O2)C1C(=O)Nc1ccc(Oc2ccccc2)cc1 (stereo not shown) — lower, -11.2%
- COc1ccc(OCC(=O)Nc2sc(C)c(C)c2C(N)=O)cc1 — higher, 2.48%
- CCOC(=O)c1sc(C)c2c1NC(C)(c1ccccc1)NC2=O (stereo not shown) — higher, -5.63%
- COc1ccccc1N1C(=O)/C(=C/c2ccc(O)c(O)c2)C(=O)NC1=S — higher, -2.42%
- CCCOc1ccc(C2C3=C(O)CCCC3=NC(C)=C2C(=O)OCC)cc1OC (stereo not shown) — higher, 14.3%
- CCN(Cc1ccccc1)C(=O)CSc1nc2cccnc2[nH]1 — higher, 3.95%
- COc1ccc(NC(=O)c2ccc(Br)o2)c(OC)c1 — higher, -0.996%
- CC1CCN(CCOCCOc2ccc(Br)cc2)CC1 — lower, -19.7%
- Cc1ccc2c(c1)-c1onc(C(=O)N3CCN(C(=O)c4ccco4)CC3)c1CO2 — higher, -0.825%
- Nc1c2c(nc3sc4c(c13)CCCC4)CCCCC2 — higher, -4.03%
- COc1cc(CN2CCCCCC2)cc(Br)c1O — higher, -3.72%
- CC1(C)CC(=O)C2=C(C1)OC(N)=C(C#N)C2c1ccc(OCC(=O)Nc2ccccc2)cc1 (stereo not shown) — higher, 1.19%
- CCOc1ccc(NC(=S)Nc2ccc3nccnc3c2)cc1 — higher, -0.267%
- Cc1ccc(S(=O)(=O)N(CC(=O)N2CCc3ccccc3C2)c2ccc(F)cc2)cc1 — higher, -6.75%
- O=C(CN1CCOCC1)NC12CC3CC(CC(C3)C1)C2 — higher, 1.9%
- O=C(NCCCO)/C(=C\c1ccc(Br)cc1)NC(=O)c1ccccc1 — higher, -2.87%
- Cc1nc(O)c2c(n1)OC(N)=C(C#N)C2c1ccc(F)cc1 (stereo not shown) — higher, -2.54%
- O=C(Cn1cnc2c(nnn2-c2ccc(F)cc2)c1=O)NCc1ccco1 — higher, -0.431%
- C=CCn1c(SCC(=O)c2ccccc2)nc2ccccc2c1=O — higher, 0.52%
- COc1ccc(CCNC(=O)C2=CCN(S(=O)(=O)c3ccc(F)cc3)CC2)cc1OC — higher, -1.21%
- CCN(CC)CCS(=O)(=O)CCC(N)=O — higher, -6.82%
- O=C(Nc1cnn(Cc2ccccc2)c1)NC12CC3CC(CC(C3)C1)C2 — higher, 1.25%
- CC(C)(CNC(=O)C1CCCCC1)CNC(=O)C1CCCCC1 — higher, -1.36%
- O=C1NN=CC(c2ccccc2)(c2c[nH]c3ccccc23)N1 (stereo not shown) — higher, -2.92%
- CCc1nn(CC(=O)NCc2cc(OC)ccc2OC)c(=O)c2cc3c(OC)cccc3n12 — higher, 4.84%
- CC(=O)c1c(C(C)=O)c(C)n(-c2cc(C)c(C)cc2N)c1C — higher, 3.29%
- O=C(NCCc1ccc(Cl)cc1)c1oc(=O)c2ccccc2c1-c1ccccc1 — higher, -3.35%
- Cc1ccc(-c2noc(CN(C(=O)c3ccc(Br)o3)C(C)C)n2)cc1 — higher, 1.38%
- CSc1nc(/C=C2\C=Nc3ccccc32)c(O)n1C — higher, -4.67%
- Cc1ccc(O)c(NC(=O)c2cc3nc(-c4ccc(F)cc4)cc(C)n3n2)c1 — higher, -2.97%
- Cc1cc(C=C2C(=O)c3ccccc3C2=O)c(C)n1-c1cccc(C(=O)O)c1 — higher, 6.89%
- CCOc1cc(C#N)c(Br)cc1OCC(=O)Nc1ccccc1OC — higher, -6.02%
- CCSc1nnc(-c2ccc(C)cc2)c2ccccc12 — higher, 6.23%
- Cc1nc2c(C(=O)NCCC3=CCCCC3)cnn2c(O)c1Cl — higher, 2.9%
- Cc1csc2nc(CNS(=O)(=O)c3ccc(Cl)s3)cn12 — higher, 5.65%
- CC(=O)C1=C(C)N=C(S)NC1c1ccccc1O (stereo not shown) — higher, -5.5%
- Cc1ccc2oc(C(=O)Nc3nc4ccc(F)cc4s3)cc(=O)c2c1 — higher, -1.47%
- CCOC(=O)c1c(NC(=O)c2ccc(Cn3nc(C)c(Br)c3C)cc2)sc(C)c1C — higher, 2.1%
- O=C1N=C(Nc2ccccn2)SC1Cc1ccc(Br)cc1 (stereo not shown) — higher, -4.16%
- N#CC1=C(N)Oc2[nH]nc(-c3ccncc3)c2C1c1ccc(O)cc1 (stereo not shown) — higher, 4.33%
- CSc1nc(O)c(Cc2ccccc2)c(O)n1 — higher, -3.94%
- CC(NC(=O)c1nc(-c2ccc(C(F)(F)F)cc2)no1)c1ccccc1 (stereo not shown) — higher, -1.24%
- O=C(O)CNC1CCS(=O)(=O)C1 (stereo not shown) — higher, 0.627%
- CC(C)(C)c1ccc(C(CC(=O)O)NC(=O)Cc2ccc(F)cc2)cc1 (stereo not shown) — higher, -6.28%
- CC1(C)CC(=O)C2=C(C1)N(Cc1ccco1)C(=O)NC2(C(F)(F)F)C(F)(F)F — higher, 1.91%
- CC(=O)N1CCc2c(sc3c2c(=O)n(Cc2ccccc2)c(=O)n3Cc2ccccc2C#N)C1 — higher, 0.0579%
- Oc1ccc2ccccc2c1CN1CCN(Cc2ccccc2)CC1 — higher, 6.33%
- c1ccc(OCCn2c(N3CCOCC3)nc3ccccc32)cc1 — higher, 0.627%
- N#Cc1nc(COc2ccccc2F)oc1NCCCn1ccnc1 — higher, -0.99%
- CC(C)Oc1ccc(CNC(=O)c2ccc(CS(=O)Cc3ccc(Cl)cc3)o2)cc1 (stereo not shown) — higher, -3.02%
- COc1ccc2c(C)c(CCC(=O)N3CCOCC3)c(=O)oc2c1C — higher, -2.57%
